Experimental findings from patent publication US20250326840A1 (QURE BIOTECHNOLOGY SHANGHAI, published 2025) are described below.

The target of test [1] is T1, QP094 (human SIRPα V1 ECD(E31-R370)-flag-his) (human, UniProt P78324 31-370).
T1 construct: the construct carries flag and his tags; also called SIRPαV1-flag-his; SIRPαV1-his (QP094)
Put plainly: SPR, Biacore T200. (In general: SPR reads the build-up and loss of mass on a sensor chip optically.)

Test [2] deals with T2, QP096 (human SIRPα V2 ECD(E31-R370)-flag-his) (human).
T2 construct: the construct carries flag and his tags; also called SIRPαV2-Flag-his; Human SIRPα V2 (QP096)
Put plainly: SPR, Biacore T200.

Test [3] has as its target T3, QP100 (cyno SIRPα (G7PGS8) ECD(E29-R368)-flag-his) (cynomolgus).
T3 construct: the construct carries flag and his tags; also called cynoSIRPα-flag-his; Cynomolgus SIRPα (QP100)
T3 chain: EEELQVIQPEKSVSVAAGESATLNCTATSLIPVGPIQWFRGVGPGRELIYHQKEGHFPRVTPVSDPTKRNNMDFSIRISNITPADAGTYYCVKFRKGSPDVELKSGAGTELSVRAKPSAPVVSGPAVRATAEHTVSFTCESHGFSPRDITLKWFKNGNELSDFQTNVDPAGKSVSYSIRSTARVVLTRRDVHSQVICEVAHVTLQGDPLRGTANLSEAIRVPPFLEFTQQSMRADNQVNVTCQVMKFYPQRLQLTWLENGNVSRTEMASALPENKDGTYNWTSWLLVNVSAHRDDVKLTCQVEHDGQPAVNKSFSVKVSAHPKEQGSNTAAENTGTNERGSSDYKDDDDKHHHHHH
Put plainly: SPR, Biacore.

Test [4] concerns the target T3, QP100 (cyno SIRPα (G7PGS8) …). Put plainly: binding ELISA, antigen coated. (ELISA stands for enzyme-linked immunosorbent assay.)
Test [5] concerns the target T4, QP271 (rhesus SIRPα1-flag-his T-557-28) (rhesus monkey).
T4 construct: also called rhesus monkey SIRPα (QP271); monkeySIRPα1-flag-his
T4 chain: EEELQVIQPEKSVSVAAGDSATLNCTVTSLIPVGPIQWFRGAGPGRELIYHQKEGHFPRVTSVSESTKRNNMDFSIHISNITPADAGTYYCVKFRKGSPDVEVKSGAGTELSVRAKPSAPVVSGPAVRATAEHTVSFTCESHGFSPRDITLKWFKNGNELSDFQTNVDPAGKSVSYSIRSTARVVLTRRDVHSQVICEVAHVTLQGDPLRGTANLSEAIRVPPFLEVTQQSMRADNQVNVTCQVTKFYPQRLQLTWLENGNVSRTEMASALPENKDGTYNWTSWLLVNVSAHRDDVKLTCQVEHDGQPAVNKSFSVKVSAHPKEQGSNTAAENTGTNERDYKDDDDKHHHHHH
Put plainly: binding ELISA, antigen coated.

In test [6] the target is T1, QP094 (human SIRPα V1 …). Put plainly: binding ELISA, antigen coated.
Test [7] addresses T2, QP096 (human SIRPα V2 …). Put plainly: binding ELISA, antigen coated.
The target of test [8] is T5, QP098 (cyno SIRPα (I7G9Z7) ECD(E31-R369)-flag-his) (cynomolgus).
T5 construct: the construct carries flag and his tags; also called cynoSIRPα (ECD); cynomolgus SIRPα
T5 chain: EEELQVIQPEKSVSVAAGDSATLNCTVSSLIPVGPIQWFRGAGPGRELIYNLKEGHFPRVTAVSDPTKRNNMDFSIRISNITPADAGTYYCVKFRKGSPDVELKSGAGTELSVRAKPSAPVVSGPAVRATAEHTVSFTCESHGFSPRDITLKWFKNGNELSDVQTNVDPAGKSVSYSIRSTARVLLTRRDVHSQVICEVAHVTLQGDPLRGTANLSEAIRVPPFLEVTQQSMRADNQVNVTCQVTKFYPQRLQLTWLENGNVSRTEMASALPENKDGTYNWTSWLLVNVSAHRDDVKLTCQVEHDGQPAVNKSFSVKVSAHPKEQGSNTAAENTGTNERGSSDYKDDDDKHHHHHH
Put plainly: binding ELISA, antigen coated.

For test [9], the target named is T6, QP273 (cynoSIRPα2-flag-his T-557-14) (cynomolgus).
T6 construct: also called cynomolgus SIRPα (QP273)
T6 chain: T4 chain with D19E, V27A, A42V, H51S, S62P, E65D, S66P, H77R, V103L
Put plainly: binding ELISA, antigen coated.

Test [10] has as its target T1, QP094 (human SIRPα V1 …). Put plainly: SPR, Biacore.
Test [11] deals with T2, QP096 (human SIRPα V2 …). Put plainly: SPR, Biacore.

Substitutions are numbered along the chain they refer to.

B1: QP163164 (antibody, human IgG1, kappa)
heavy: QVQLQQPGTELVRPGASVKLSCKASGYTFTNYWINWVKQRPGQGLEWIAMIDPSDSETHYNQIFKDKATLTVDKSSNTAYMQLSSLTSGDSAVYYCAMDYGSLYAMDYWGRGTSVTVSS[no letters for human IgG1 constant region]
light: DIVLTQSPASLAVSLGQRATISCRASKSVSSSGYNYIFWYQQKPGQPPKLLIYLASNLDSGVPARFSGSGSGTDFTLNIHPVEEEDAATYYCQHSRELPTFGGGTKLEIKRTVAAPSVFIFPPSDEQLKSGTASVVCLLNNFYPREAKVQWKVDNALQSGNSQESVTEQDSKDSTYSLSSTLTLSKADYEKHKVYACEVTHQGLSSPVTKSFNRGEC
notes: Murine 71C10 variable regions on human IgG1 / kappa constant regions; also called anti-SIRPα chimeric antibody QP163164; 71C10 chimeric, human IgG1
Regarding B1, in the test with QP094 (human SIRPα V1 …) [1], the Kd – broadly, the free concentration of one partner at which half of the binding sites on the other are occupied at equilibrium, for simple one-to-one binding – is 0.527 nM; the koff (in general, a measure of how fast the partners let go of each other) is 0.00143 s⁻¹; the kon (as a rule, the second-order rate constant of association) was 2.71e+06 M⁻¹ s⁻¹. In addition, in the test with QP096 (human SIRPα V2 …) [2], the affinity, expressed as Kd, was 0.678 nM; the off-rate constant (koff) amounted to 0.0023 s⁻¹; the kon is 3.39e+06 M⁻¹ s⁻¹. In [3], this molecule registered a Kd of 132 nM, a koff of 0.263 s⁻¹ and an association rate constant (kon) of 1.99e+06 M⁻¹ s⁻¹.

B2: QP163245 (antibody, human IgG4 S228P, kappa)
heavy: QVQLQQPGTELVRPGASVKLSCKASGYTFTNYWINWVKQRPGQGLEWIAMIDPSDSETHYNQIFKDKATLTVDKSSNTAYMQLSSLTSGDSAVYYCAMDYGSLYAMDYWGRGTSVTVSSASTKGPSVFPLAPCSRSTSESTAALGCLVKDYFPEPVTVSWNSGALTSGVHTFPAVLQSSGLYSLSSVVTVPSSSLGTKTYTCNVDHKPSNTKVDKRV[no letters for human IgG4 Fc with S228P (EU numbers)]
light: B1 light
notes: also called chimeric antibody QP163245; 71C10 chimeric, human IgG4
Regarding B2, the concentration for a half-maximal effect (EC50) (as a rule, the concentration at which the effect is half-maximal) in test [4] worked out at 1.17 ng/mL; in test [5] it was 0.882 ng/mL; with QP094 (human SIRPα V1 …) [6] it was 1.11 ng/mL; with QP096 (human SIRPα V2 …) [7], 1.23 ng/mL; in test [8], 1.53 ng/mL; in test [9], 1.6 ng/mL. Besides, the Kd in the test with QP094 (human SIRPα V1 …) [10] worked out at 0.386 nM; in the test with QP096 (human SIRPα V2 …) [11], 0.558 nM.
